This is an account of results in the supplement of paper PMC10338343.

± gives the standard deviation. This is a selection; strong and weak results do not stand in their true shares.

In this test the test system is MIWI (PIWIL1) piRISC loaded with L1MC piRNA (30 nt). Briefly: pre-steady-state target cleavage rate (min^-1); MIWI and MILI are mouse PIWI proteins and EfPiwi is from a freshwater sponge; tags in brackets are library labels; higher = faster piRNA-guided slicing of the target. The following applies: guide: L1MC piRNA 5'p-UAACUAAAUACUAUGCAAGCUGUAGGUCCU
The gist of the method: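 A transcribed, DNA-blocked target RNA library (0.1 nM) and 1 nM active affinity-purified piRISC bearing one synthetic guide were incubated in HEPES–potassium acetate buffer at 33 °C for 0–8 or 0–960 min, either with or without 500 nM GTSF1 partner protein. Uncleaved targets were sequenced, normalised to depth and to weakly complementary targets, and pooled over three trials, with k3 capped at 0.0001 min^-1. The pre-steady-state cleavage rate was derived with a burst-and-steady-state fit.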

[1] abbreviates: auxiliary factor: 500 nM mouse GTSF1.
Setting [2] is: auxiliary factor: none (no GTSF1).

Regarding UCCACGAUCAGCUUGCAUAGUAUUUACAAA, the “pre-steady-state target cleavage rate” value runs as follows: under setting [1], 0.368 ± 0.042; under setting [2], 0.00566 ± 0.0024.

For UCCUGCUACACCUUGCAUAGUAUUUAGAUA, the “pre-steady-state target cleavage rate” value amounted to 0.234 ± 0.053 under setting [1] and 0.012 ± 0.0027 under setting [2].

For UCCUGGUACAGCUUGCUUAGAAUUUAGUUA, the “pre-steady-state target cleavage rate” value was 0.282 ± 0.073 under setting [1] and 0.00965 ± 0.0037 under setting [2].

With UGGACCUACAGCUUGCAUAGUAUUUACGUUA, the “pre-steady-state target cleavage rate” value by setting is: under setting [1], 0.893 ± 0.062; under setting [2], 0.0507 ± 0.011.

In the case of AGGACCUACAGCUAGCAUACUAUUUAGUUA, the “pre-steady-state target cleavage rate” value under setting [1] was 0.389 ± 0.029 and the “pre-steady-state target cleavage rate” value under setting [2] was 0.0192 ± 0.0036.

UCCUGGAUCAGCUUGCAUAGUAAUUAGUAA: the “pre-steady-state target cleavage rate” value under setting [1] is 0.248 ± 0.034 and the “pre-steady-state target cleavage rate” value under setting [2] is 0.0094 ± 0.0034.

In the case of UCCACGUACAGCUUGCAUAGUAUUAAGUUA, the “pre-steady-state target cleavage rate” value is 0.391 ± 0.026 under setting [1] and 0.0198 ± 0.0035 under setting [2].

UCCUGGAUCAGCUUGCAAUCUAUUUAGUUA: the “pre-steady-state target cleavage rate” value under setting [1] was determined as 0.0129 ± 0.0034 and the “pre-steady-state target cleavage rate” value under setting [2] was found to be 0.00389 ± 0.0025.

Regarding UCGACCUGCAGCUUGCAUAGUAUUUAGUUA, the “pre-steady-state target cleavage rate” value is, setting by setting: under setting [1], 1.41 ± 0.072; under setting [2], 0.0674 ± 0.013.

For the sequence UCCUGGAUGAGCUUGCAAAGUAUUUAGAUA, the “pre-steady-state target cleavage rate” value reads like this: under setting [1], 0.368 ± 0.05; under setting [2], 0.0124 ± 0.0051.

With AGGACCUACAGCUUGGAAAGUAUUUAGUUA, the “pre-steady-state target cleavage rate” value runs as follows: under setting [1], 1.16 ± 0.037; under setting [2], 0.00672 ± 0.0024.

For AGGAGCUACAGCUUGCAUAGAAUUUAGUUA, the “pre-steady-state target cleavage rate” value worked out at 0.502 ± 0.02 under setting [1] and 0.0288 ± 0.0086 under setting [2].

AGGACCUACUGCUUGCAUAGUAUUUACUUA: the “pre-steady-state target cleavage rate” value by setting is: under setting [1], 0.322 ± 0.031; under setting [2], 0.0369 ± 0.0057.

On to UCCUGGUAGAGCUUGCAUAGUAUUUUGUUA, for which the “pre-steady-state target cleavage rate” value reads like this: under setting [1], 0.462 ± 0.05; under setting [2], 0.015 ± 0.005.

UCCUGGAUCAGCUUGCAUUGUAUUUAGAAA: the “pre-steady-state target cleavage rate” value is, setting by setting: under setting [1], 0.0646 ± 0.015; under setting [2], 0.00498 ± 0.0024.

UCCUCCUACAGCUAGCAUAGAAUUUAGUUA: the “pre-steady-state target cleavage rate” value is, setting by setting: under setting [1], 0.271 ± 0.026; under setting [2], 0.00634 ± 0.0024.

Turning to UCCUCCUACAGCUUGCUUAGUAAUUAGUUA, the “pre-steady-state target cleavage rate” value under setting [1] was 0.658 ± 0.03 and the “pre-steady-state target cleavage rate” value under setting [2] amounted to 0.00861 ± 0.0025.

Consider UCCUGGAUGAGCUUGCAUAGUUUUUAGUUA, for which the “pre-steady-state target cleavage rate” value under setting [1] stood at 0.175 ± 0.017 and the “pre-steady-state target cleavage rate” value under setting [2] came out at 0.0303 ± 0.008.

Consider UCCUGGAACAGCUUGCAUACUAAUUAGUUA, for which the “pre-steady-state target cleavage rate” value under setting [1] is 0.139 ± 0.013 and the “pre-steady-state target cleavage rate” value under setting [2] is 0.00603 ± 0.0023.

In the case of UCCUGGAUCAGCUUGCUUUGUAUUUAGUUA, the “pre-steady-state target cleavage rate” value runs as follows: under setting [1], 0.0164 ± 0.004; under setting [2], 0.00354 ± 0.0015.

AGGACCUACAGCUAGCAUAGUAUUUACUUA: the “pre-steady-state target cleavage rate” value turned out to be 0.528 ± 0.054 under setting [1] and 0.0432 ± 0.01 under setting [2].

As for UCCACCUACAGCUUGCAUUCUAUUUAGUUA, the “pre-steady-state target cleavage rate” value worked out at 0.246 ± 0.024 under setting [1] and 0.00544 ± 0.0023 under setting [2].

For the sequence UCCUGGAUGUGCAUGCAUAGUAUUUAGAUA, the “pre-steady-state target cleavage rate” value was 0.0193 ± 0.0075 under setting [1] and 0.0033 ± 0.0028 under setting [2].

Consider UCCUCCUACAGCUUGCAUUGUAUAUAGUUA, for which the “pre-steady-state target cleavage rate” value runs as follows: under setting [1], 0.395 ± 0.023; under setting [2], 0.01 ± 0.0029.

Consider UGGACCUACAGCUUGCAUAGUAUUUAGAAA, for which the “pre-steady-state target cleavage rate” value amounted to 0.515 ± 0.049 under setting [1] and 0.0136 ± 0.0046 under setting [2].

Regarding UCCUGGAUGAGCUUGCAUAGUUAUUAGUUA, the “pre-steady-state target cleavage rate” value runs as follows: under setting [1], 0.037 ± 0.01; under setting [2], 0.0092 ± 0.0039.

With AGGACCUACAGCUUGCUUAGUAUUUUGUUA, the “pre-steady-state target cleavage rate” value by setting is: under setting [1], 0.884 ± 0.054; under setting [2], 0.0276 ± 0.0071.

As for UCCUGGAUGUGCUUGCAUAGUAUUAACUUA, the “pre-steady-state target cleavage rate” value under setting [1] is 0.0107 ± 0.0052 and the “pre-steady-state target cleavage rate” value under setting [2] was determined as 0.00372 ± 0.003.

As for UCCUGGAUGUGCUUGCAUACUAUUUAGAUA, the “pre-steady-state target cleavage rate” value was found to be 0.0129 ± 0.0051 under setting [1] and 0.00516 ± 0.0023 under setting [2].

As to AGGACCUACAGCAUGCAUACUAUUUAGUUA, the “pre-steady-state target cleavage rate” value came to 0.39 ± 0.023 under setting [1] and 0.0205 ± 0.0035 under setting [2].

As to UCCUCCUACACCUUGCAUAGUAUUAAGUUA, the “pre-steady-state target cleavage rate” value reads like this: under setting [1], 0.474 ± 0.071; under setting [2], 0.0126 ± 0.0026.

On to UCGACCUACUGCUUGCAUAGUAUUUACUUA, for which the “pre-steady-state target cleavage rate” value came to 0.278 ± 0.017 under setting [1] and 0.0322 ± 0.0038 under setting [2].

UGGACCAUCAGCUUGCAUAGUAUUUUCAAA: the “pre-steady-state target cleavage rate” value reads like this: under setting [1], 0.199 ± 0.028; under setting [2], 0.00348 ± 0.0026.

For the sequence AGGACCUACAGCUUGCAUAGUAUUUAGGUUA, the “pre-steady-state target cleavage rate” value reads like this: under setting [1], 0.443 ± 0.068; under setting [2], 0.0392 ± 0.012.

On to UCGAGCUACAGCUUGCAUAGUAUUUAGUAA, for which the “pre-steady-state target cleavage rate” value reads like this: under setting [1], 1.08 ± 0.082; under setting [2], 0.0348 ± 0.0066.

As for UCCUCCUACAGCUAGCAUAGUAUUUAGUAA, the “pre-steady-state target cleavage rate” value reads like this: under setting [1], 0.478 ± 0.039; under setting [2], 0.00501 ± 0.0017.

Turning to UGGACCUAUCAGCUUGCAUAGUAUUUAGUUA, the “pre-steady-state target cleavage rate” value runs as follows: under setting [1], 1.48 ± 0.086; under setting [2], 0.074 ± 0.016.

As for UCCUCCUACAGCUUGCUUAGAAUUUAGUUA, the “pre-steady-state target cleavage rate” value under setting [1] is 0.274 ± 0.035 and the “pre-steady-state target cleavage rate” value under setting [2] worked out at 0.00553 ± 0.0023.

For UGGACCUACAGCAUGCAUACUAUUUAGUUA, the “pre-steady-state target cleavage rate” value under setting [1] is 0.371 ± 0.018 and the “pre-steady-state target cleavage rate” value under setting [2] came to 0.0205 ± 0.0045.

For UGGACCUACUGCUUGCAUAGUAUUUAGAUA, the “pre-steady-state target cleavage rate” value reads like this: under setting [1], 0.256 ± 0.021; under setting [2], 0.018 ± 0.0023.

For UCCUGGAUGUCCUUGAAUAGUAUUUAGUUA, the “pre-steady-state target cleavage rate” value was found to be 0.0223 ± 0.0065 under setting [1] and 0.00268 ± 0.0026 under setting [2].

As for UCCUGGUACAGCAUGCAUUGUAUUUAGUUA, the “pre-steady-state target cleavage rate” value runs as follows: under setting [1], 0.406 ± 0.026; under setting [2], 0.013 ± 0.0032.

Regarding UCGACCUACUCGUUGCAUAGUAUUUAGAAA, the “pre-steady-state target cleavage rate” value under setting [1] amounted to 0.19 ± 0.023 and the “pre-steady-state target cleavage rate” value under setting [2] was determined as 0.00251 ± 0.0018.

In the case of UCCACCUAGAGCUUGCAUAGUAUUAAGUUA, the “pre-steady-state target cleavage rate” value under setting [1] was determined as 1 ± 0.12 and the “pre-steady-state target cleavage rate” value under setting [2] came to 0.0172 ± 0.0031.

With UCGACCUAUCAGCUUGCAUAGUAUUUAGUUA, the “pre-steady-state target cleavage rate” value runs as follows: under setting [1], 1.61 ± 0.06; under setting [2], 0.0851 ± 0.018.

For UCGACCUACUGCUUGGAUAGUAUUUAGUUA, the “pre-steady-state target cleavage rate” value was 1.67 ± 0.068 under setting [1] and 0.0575 ± 0.0089 under setting [2].

Consider UCCUGGUAAAGCUUGCAUAGUAUUUAGUUA, for which the “pre-steady-state target cleavage rate” value was found to be 0.551 ± 0.037 under setting [1] and 0.0419 ± 0.0086 under setting [2].

Take UCCUCCUAGAGCAUGCAUAGUAUUUAGUUA: the “pre-steady-state target cleavage rate” value reads like this: under setting [1], 0.586 ± 0.055; under setting [2], 0.0146 ± 0.0025.

For UCCUGGUACAGCUUGCUUAGUAUUUACUUA, the “pre-steady-state target cleavage rate” value was 0.28 ± 0.041 under setting [1] and 0.019 ± 0.0045 under setting [2].

On to UCCUGCUACACCUUGCAUAGUAUUUAGUAA, for which the “pre-steady-state target cleavage rate” value worked out at 0.418 ± 0.055 under setting [1] and 0.0158 ± 0.0032 under setting [2].

In the case of UCCUGGUACAGCUUGCAUAGUAUUUAGUUUA, the “pre-steady-state target cleavage rate” value is 0.866 ± 0.053 under setting [1] and 0.0646 ± 0.014 under setting [2].

Regarding UCCACCUACAGCUUGCUUAGUAUUUUGUUA, the “pre-steady-state target cleavage rate” value reads like this: under setting [1], 0.641 ± 0.042; under setting [2], 0.0136 ± 0.0027.

Regarding UCCUGGAUCAGCUUGCAUAGUAUAUUGUUA, the “pre-steady-state target cleavage rate” value under setting [1] came to 0.317 ± 0.025 and the “pre-steady-state target cleavage rate” value under setting [2] was 0.0142 ± 0.0066.

On to AGGACCUACAGCUUGCAUAGUAUUUAGUGUA, for which the “pre-steady-state target cleavage rate” value is, setting by setting: under setting [1], 0.543 ± 0.04; under setting [2], 0.0657 ± 0.012.

For AGGACCUACAGCUUGCAUAGUAUUUAUUA, the “pre-steady-state target cleavage rate” value under setting [1] is 0.281 ± 0.041 and the “pre-steady-state target cleavage rate” value under setting [2] worked out at 0.00551 ± 0.0029.

Consider UCCUGCUACAUGCUUGCAUAGUAUUUAGUUA, for which the “pre-steady-state target cleavage rate” value reads like this: under setting [1], 0.211 ± 0.031; under setting [2], 0.0175 ± 0.0034.

In the case of UCCUGCUACAGCUUGCGUAGUAUUUAGUUA, the “pre-steady-state target cleavage rate” value was 0.806 ± 0.044 under setting [1] and 0.0172 ± 0.0034 under setting [2].

Regarding UCGACCUACAGCAUGCAUAGAAUUUAGUUA, the “pre-steady-state target cleavage rate” value is 0.34 ± 0.047 under setting [1] and 0.00735 ± 0.0016 under setting [2].

AGGACCAACAGCUUGCAUAGUAUUUAGUAA: the “pre-steady-state target cleavage rate” value is, setting by setting: under setting [1], 0.974 ± 0.079; under setting [2], 0.0722 ± 0.014.

Regarding UCCUGGAACCGCUUGCAUAGUAUUUAGUUA, the “pre-steady-state target cleavage rate” value under setting [1] is 0.935 ± 0.055 and the “pre-steady-state target cleavage rate” value under setting [2] came out at 0.0255 ± 0.0054.
